The supplement of paper PMC4967469
A lower IC50 marks a more sensitive line; a fit beyond the top or the lowest dose is shown as a bound at that dose. For AUC the same curve is integrated over the 256-fold range of doses and scaled to a fraction: 1 means no effect, lower means more sensitive. For some of these results: An inferred top dose is not printed in the source and was worked back from the curve model.

Assays:
Assay in all cases: Viability of human cancer cell lines after 72 h of drug (GDSC screen)
Tubastatin A = compound: CN1CCc2c(c3ccccc3n2Cc2ccc(C(=O)NO)cc2)C1 [Tubastatin A]; conditions: top dose 20 µM
Protocol: (§1)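 Human cancer cell lines in 384-well plates, medium with 10% serum, drug for 72 h over a 256-fold dose range (nine 2-fold or five 4-fold steps up to the top dose). Adherent lines were fixed and stained with the nucleic acid dye Syto60, suspension lines read with resazurin; signal relative to control wells, capped at 0 and 100%. One two-parameter sigmoid per drug and line, fitted in a mixed model over all curves with the slope shared within a line.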

XL-880 = compound: COc1cc2c(Oc3ccc(NC(=O)C4(C(=O)Nc5ccc(F)cc5)CC4)cc3F)ccnc2cc1OCCCN1CCOCC1 [XL-880]; conditions: top dose 5.12 µM; top dose inferred
Protocol: as §1

Temozolomide = compound: Cn1nnc2c(C(N)=O)ncn2c1=O [Temozolomide]; conditions: top dose 30 µM
Protocol: as §1

CI-1040 = compound: O=C(NOCC1CC1)c1ccc(F)c(F)c1Nc1ccc(I)cc1Cl [CI-1040]; conditions: top dose 10 µM; top dose inferred
Protocol: as §1

IPA-3 = compound: Oc1ccc2ccccc2c1SSc1c(O)ccc2ccccc12 [IPA-3]; conditions: top dose 32 µM; top dose inferred
Protocol: as §1

Row | Cell Line | AUC (Tubastatin A) | IC50 (Tubastatin A) [µM] | AUC (XL-880) | IC50 (XL-880) [µM] | AUC (Temozolomide) | IC50 (Temozolomide) [µM] | AUC (CI-1040) | IC50 (CI-1040) [µM] | AUC (IPA-3) | IC50 (IPA-3) [µM]
1 | HT-1376 (bladder, adherent) | 0.985 | > 20 | 0.985 | > 5.12 | 0.969 | > 30 | 0.941 | > 10 | 0.978 | > 32
2 | H4 (glioma, adherent) | 0.974 | > 20 | 0.498 | 0.316 | 0.981 | > 30 | 0.801 | 4.83 | 0.987 | > 32
3 | SBC-5 (small cell lung carcinoma, adherent) | 0.993 | > 20 | 0.676 | 0.89 | 0.987 | > 30 | 0.819 | 4.37 | 0.939 | > 32
4 | CHL-1 (melanoma, adherent) | 0.959 | > 20 | 0.533 | 0.391 | 0.985 | > 30 | 0.726 | 2.63 | 0.713 | 7.66
5 | NCI-H1693 (lung adenocarcinoma, adherent) | 0.925 | > 20 | 0.805 | 4.8 | 0.964 | > 30 | 0.727 | 4.18 | 0.976 | > 32
6 | U-118-MG (glioma, adherent) | 0.983 | > 20 | 0.598 | 0.619 | 0.982 | > 30 | 0.865 | > 10 | 0.985 | > 32
7 | WM793B (melanoma, adherent) | 0.984 | > 20 | 0.619 | 0.704 | 0.957 | > 30 | 0.784 | 4.73 | 0.75 | 11.4
8 | MDA-MB-453 (breast, adherent) | 0.821 | 13.3 | 0.886 | > 5.12 | 0.983 | > 30 | 0.958 | > 10 | 0.912 | > 32
9 | COLO-205 (large intestine, suspension) | 0.919 | > 20 | 0.712 | 1.26 | 0.98 | > 30 | 0.619 | 1.32 | 0.913 | > 32
10 | UMC-11 (lung carcinoid, adherent) | 0.876 | 16.3 | 0.631 | 0.706 | 0.975 | > 30 | 0.908 | > 10 | 0.991 | > 32
11 | PCI-15A (head and neck, adherent) | 0.987 | > 20 | 0.987 | > 5.12 | 0.986 | > 30 | 0.984 | > 10 | 0.856 | 26.2
12 | YAPC (pancreas, adherent) | 0.985 | > 20 | 0.75 | 2.04 | 0.982 | > 30 | 0.961 | > 10 | 0.985 | > 32
13 | RH-41 (rhabdomyosarcoma, adherent) | 0.963 | > 20 | 0.701 | 1.05 | 0.992 | > 30 | 0.965 | > 10 | 0.745 | 8.69
14 | SU-DHL-5 (B-cell lymphoma, suspension) | 0.651 | 2.92 | 0.404 | 0.187 | 0.909 | 23.2 | 0.871 | 5.66 | 0.498 | 1.98
15 | EFO-21 (ovary, adherent) | 0.973 | > 20 | 0.701 | 1.52 | 0.974 | > 30 | 0.914 | > 10 | 0.909 | > 32
16 | Daoy (medulloblastoma, adherent) | 0.809 | 9.28 | 0.706 | 1.15 | 0.982 | > 30 | 0.927 | > 10 | 0.614 | 3.99
17 | HCC70 (breast, adherent) | 0.941 | > 20 | 0.81 | 2.63 | 0.974 | > 30 | 0.847 | 7.18 | 0.988 | > 32
18 | TGBC11TKB (stomach, adherent) | 0.985 | > 20 | 0.94 | > 5.12 | 0.992 | > 30 | 0.808 | 4.44 | 0.955 | > 32
19 | 5637 (bladder, adherent) | 0.933 | > 20 | 0.599 | 0.581 | 0.978 | > 30 | 0.931 | > 10 | 0.871 | 25.3
20 | SK-HEP-1 (liver, adherent) | 0.976 | > 20 | 0.793 | 2.17 | 0.987 | > 30 | 0.774 | 3.67 | 0.87 | 26.6
21 | NCI-H727 (lung carcinoid, adherent) | 0.954 | > 20 | 0.772 | 3.48 | 0.969 | > 30 | 0.59 | 1.3 | 0.732 | 14.6
22 | SCC-9 (head and neck, adherent) | 0.953 | > 20 | 0.498 | 0.316 | 0.971 | > 30 | 0.954 | > 10 | 0.981 | > 32
23 | OVMIU (ovary, adherent) | 0.833 | 17.7 | 0.589 | 0.595 | 0.977 | > 30 | 0.678 | 2.24 | 0.888 | > 32
24 | FU-OV-1 (ovary, adherent) | 0.979 | > 20 | 0.625 | 0.792 | 0.968 | > 30 | 0.851 | > 10 | 0.969 | > 32
25 | NCI-H2444 (non-small cell lung carcinoma, adherent) | 0.971 | > 20 | 0.84 | 4.25 | 0.987 | > 30 | 0.883 | > 10 | 0.904 | > 32
26 | PANC-03-27 (pancreas, adherent) | 0.968 | > 20 | 0.534 | 0.394 | 0.987 | > 30 | 0.751 | 3.1 | 0.946 | > 32
27 | KP-3 (pancreas, adherent) | 0.966 | > 20 | 0.62 | 0.733 | 0.965 | > 30 | 0.893 | > 10 | 0.975 | > 32

Row | Cell Line | AUC (Tubastatin A) | IC50 (Tubastatin A) [µM] | AUC (XL-880) | IC50 (XL-880) [µM] | AUC (Temozolomide) | IC50 (Temozolomide) [µM] | AUC (CI-1040) | IC50 (CI-1040) [µM] | AUC (IPA-3) | IC50 (IPA-3) [µM]
28 | BFTC-905 (bladder, adherent) | 0.984 | > 20 | 0.68 | 0.939 | 0.947 | > 30 | 0.769 | 3.27 | 0.642 | 4.65
29 | FU97 (stomach, adherent) | 0.961 | > 20 | 0.637 | 0.776 | 0.982 | > 30 | 0.895 | > 10 | 0.882 | > 32
30 | SAT (head and neck, adherent) | 0.942 | > 20 | 0.663 | 1.17 | 0.954 | > 30 | 0.75 | 5 | 0.973 | > 32
31 | SK-OV-3 (ovary, adherent) | 0.945 | > 20 | 0.633 | 0.821 | 0.969 | > 30 | 0.913 | > 10 | 0.836 | 29.3
32 | C-33-A (cervix, adherent) | 0.871 | 19 | 0.575 | 0.513 | 0.98 | > 30 | 0.919 | > 10 | 0.982 | > 32
33 | OE19 (oesophagus, adherent) | 0.985 | > 20 | 0.879 | > 5.12 | 0.985 | > 30 | 0.95 | > 10 | 0.976 | > 32
34 | KYSE-510 (oesophagus, adherent) | 0.989 | > 20 | 0.769 | 1.62 | 0.893 | 25.2 | 0.852 | 5.78 | 0.791 | 11.7
35 | SKN-3 (head and neck, adherent) | 0.979 | > 20 | 0.708 | 1.39 | 0.95 | > 30 | 0.742 | 3.54 | 0.97 | > 32
36 | MC-IXC (neuroblastoma, adherent) | 0.965 | > 20 | 0.643 | 0.709 | 0.996 | > 30 | 0.936 | 9.22 | 0.797 | 10.8
37 | Ca9-22 (head and neck, adherent) | 0.971 | > 20 | 0.698 | 1.1 | 0.987 | > 30 | 0.751 | 3.08 | 0.815 | 16
38 | Saos-2 (osteosarcoma, adherent) | 0.981 | > 20 | 0.981 | > 5.12 | 0.967 | > 30 | 0.928 | > 10 | 0.914 | > 32
39 | IGR-37 (melanoma, adherent) | 0.895 | > 20 | 0.658 | 0.843 | 0.988 | > 30 | 0.272 | 0.151 | 0.792 | 13.1
40 | NCI-H2342 (lung adenocarcinoma, adherent) | 0.983 | > 20 | 0.826 | 3.55 | 0.981 | > 30 | 0.921 | > 10 | 0.738 | 10.4
41 | 23132-87 (stomach, adherent) | 0.948 | > 20 | 0.762 | 1.89 | 0.985 | > 30 | 0.879 | > 10 | 0.979 | > 32
42 | OE33 (oesophagus, adherent) | 0.913 | > 20 | 0.478 | 0.276 | 0.957 | > 30 | 0.88 | > 10 | 0.912 | > 32
43 | NCI-H2452 (mesothelioma, adherent) | 0.984 | > 20 | 0.969 | > 5.12 | 0.969 | > 30 | 0.887 | > 10 | 0.981 | > 32
44 | NCI-H661 (large cell lung carcinoma, adherent) | 0.962 | > 20 | 0.608 | 0.675 | 0.976 | > 30 | 0.914 | > 10 | 0.931 | > 32
45 | SW780 (bladder, adherent) | 0.986 | > 20 | 0.774 | 2.19 | 0.924 | > 30 | 0.734 |  | 0.986 | > 32
46 | HMV-II (melanoma, adherent) | 0.961 | > 20 | 0.82 | 3.81 | 0.98 | > 30 | 0.626 | 1.51 | 0.837 | 28.6
47 | M14 (melanoma, adherent) | 0.98 | > 20 | 0.55 | 0.442 | 0.959 | > 30 | 0.341 | 0.22 | 0.979 | > 32
48 | G-361 (melanoma, adherent) | 0.92 | > 20 | 0.681 | 0.999 | 0.987 | > 30 | 0.57 | 0.96 | 0.889 | > 32
49 | DK-MG (glioma, adherent) | 0.978 | > 20 | 0.397 | 0.146 | 0.971 | > 30 | 0.795 | 7.55 | 0.856 | > 32
50 | HOS (osteosarcoma, adherent) | 0.992 | > 20 | 0.89 | 4.21 | 0.99 | > 30 | 0.841 | 5.35 | 0.658 | 5.05
51 | KYSE-70 (oesophagus, adherent) | 0.984 | > 20 | 0.845 | 4.2 | 0.971 | > 30 | 0.889 | > 10 | 0.867 | > 32
52 | NCI-H1048 (small cell lung carcinoma, adherent) | 0.962 | > 20 | 0.489 | 0.3 | 0.983 | > 30 | 0.874 | 8.05 | 0.98 | > 32
53 | OAW-42 (ovary, adherent) | 0.962 | > 20 | 0.683 | 1.09 | 0.955 | > 30 | 0.844 | 8.09 | 0.951 | > 32
